± gives the standard deviation of the averaged measurements. In all, about 33,000 sequences were measured (“E-score (dimensionless, -0.5 to 0.5)”: median about -0.046, highest 2% from about 0.36 on). Some of the results follow.
tested on: T1, SpTbr T-box DNA-binding domain (GST fusion); experiment: PBM E-score of 8-mer (E-score (dimensionless, -0.5 to 0.5)); Tbr is Tbrain of the sea star Patiria miniata (Pm) or the sea urchin Strongylocentrotus purpuratus (Sp); higher = stronger binding preference; most listed sequences are background and not binding sites; conditions: the construct has about 5 more residues each side
T1 sequence: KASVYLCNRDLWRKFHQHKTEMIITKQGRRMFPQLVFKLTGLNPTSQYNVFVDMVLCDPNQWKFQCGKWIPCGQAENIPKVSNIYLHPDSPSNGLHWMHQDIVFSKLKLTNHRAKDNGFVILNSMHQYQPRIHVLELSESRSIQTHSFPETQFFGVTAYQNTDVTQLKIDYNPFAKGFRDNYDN
Method in brief: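 Expression of GST-fused Tbr T-box DNA-binding domains, each holding the full T-box plus roughly five flanking residues, was carried out in BL21 E. coli at 20 °C, with purification by glutathione affinity chromatography. Universal Agilent arrays made double-stranded by primer extension were incubated with the protein at 200 nM in PBS (pH 7.5), then scanned and quantified. All ungapped 8-mers were scored from probe intensities, and each received an enrichment E-score from the Universal PBM Analysis Suite, averaged over duplicate arrays.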

Sequence | PBM E-score of 8-mer
CAGCCGGG | -0.0945 ± 0.0037
CGCAGGAC | -0.139 ± 0.0089
CATATATG | 0.0932 ± 0.0065
TAGGGCCA | -0.169 ± 0.046
AAAAGTTG | 0.0821 ± 0.016
TAGGCTGA | 0.0791 ± 0.02
CGCCAATC | 0.146 ± 0.034
ACCGTCAG | 0.0786 ± 0.027
CAAACTCA | -0.0448 ± 0.042
CCCACTCG | 0.05 ± 0.13
ATTAGTTC | -0.146 ± 0.024
ACCTTTCC | -0.0357 ± 0.046
CGAGGGGC | -0.107 ± 0.03
ACCTTTTG | 0.238 ± 0.033
CTCCAGTC | -0.1708 ± 0.00062
CGGAAACG | 0.00523 ± 0.026
AGTGAGGG | 0.0688 ± 0.0054
ACGGCATA | -0.1383 ± 0.00093
ATCCACTC | -0.118 ± 0.0075
TCGAGCCA | -0.161 ± 0.028
AACAGTTG | 0.195 ± 0.029
ATTAGCGC | 0.289 ± 0.017
ACCCGCCT | 0.0371 ± 0.066
AAGGACTC | -0.099 ± 0.055
AAACGTAG | -0.0977 ± 0.12

Sequence | PBM E-score of 8-mer
GCAATTAA | -0.0315 ± 0.07
AAGGAGAG | -0.168 ± 0.0067
CAAACATA | -0.183 ± 0.067
ATGTTCGG | 0.0147 ± 0.054
ACGTGATC | 0.00617 ± 0.037
CTATACTA | -0.199 ± 0.015
AGACCAAA | -0.0338 ± 0.0097
ACCTAACT | 0.0942 ± 0.077
GAATCCGA | -0.0574 ± 0.021
GATGTGGA | -0.0591 ± 0.0056
AGGTGAAC | 0.164 ± 0.025
CTTCGTAC | -0.0104 ± 0.045
CCTCAACG | -0.109 ± 0.013
GACCCCCA | -0.028 ± 0.043
ATCATTCC | -0.162 ± 0.084
CTACAAAC | -0.0247 ± 0.076
AATCTCGC | 0.292 ± 0.0066
AAGCACAA | -0.106 ± 0.019
CAGCATTA | -0.121 ± 0.096
CTAGCCAG | -0.134 ± 0.031
GGCTATAC | -0.149 ± 0.033
AACTTTTG | -0.0908 ± 0.036
AAAGCTAA | -0.142 ± 0.018
GGACCTGA | -0.266 ± 0.025
ATGCAGGG | -0.255 ± 0.0049

Sequence | PBM E-score of 8-mer
CGATCGCA | 0.288 ± 0.06
AGGTCCGC | 0.0985 ± 0.028
CGCTGGGC | -0.0665 ± 0.028
ACAAATAA | -0.0377 ± 0.058
CCACTCGC | 0.151 ± 0.036
CAGTCGGG | -0.0614 ± 0.018
TACGCACA | 0.0509 ± 0.00076
AGGATGCA | -0.33 ± 0.057
ATCCGTTA | -0.104 ± 0.011
AGTAATCA | 0.0335 ± 0.1
CAAAGACA | -0.0594 ± 0.0018
ACGTCCTA | -0.17 ± 0.032
GAACGCAC | -0.0534 ± 0.022
TATTCGGA | -0.284 ± 0.034
GAACCGGA | -0.198 ± 0.015
CGACCGAC | 0.0457 ± 0.038
TGGGCGAA | -0.169 ± 0.019
ACAAATTG | 0.134 ± 0.12
ATATCCGG | -0.305 ± 0.072
CCTGGTTA | -0.147 ± 0.013
TCTCAGCA | 0.0521 ± 0.036
GCTATCAC | 0.263 ± 0.0067
GTACGCGA | 0.0498 ± 0.053
TGGCCACA | 0.174 ± 0.053
ACGCACTC | 0.157 ± 0.038

Sequence | PBM E-score of 8-mer
AGTAGCAT | -0.206 ± 0.013
AAACTTGA | -0.0341 ± 0.015
AAGACTCA | 0.0905 ± 0.085
AGTTGCAA | 0.0833 ± 0.015
GCCCCCCA | -0.222 ± 0.013
ACTTTTCT | 0.00466 ± 0.018
ATGCTGCA | -0.179 ± 0.0059
ACTGCCGA | -0.00382 ± 0.001
CACACAAC | 0.332 ± 0.012
GCTACAGC | -0.211 ± 0.049
GATTGGCC | -0.133 ± 0.01
AAACAGTT | 0.144 ± 0.018
CAATCACG | 0.203 ± 0.017
TGTAAGAA | 0.0721 ± 0.088
TAACTAGA | -0.184 ± 0.063
AATAATGG | -0.203 ± 0.034
CGGTTATC | 0.146 ± 0.084
GGTAGATA | -0.212 ± 0.08
ATAAACAG | -0.0397 ± 0.036
AACCCGCT | 0.0344 ± 0.013
ACTGAATA | -0.0993 ± 0.059
AGAGACCA | -0.12 ± 0.063
AACGACTA | -0.044 ± 0.02
TCCGGCAA | -0.00319 ± 0.021
CGAGGTAA | -0.00371 ± 0.051

Sequence | PBM E-score of 8-mer
CTTAGGTA | -0.331 ± 0.15
AAATACTT | 0.0242 ± 0.084
GGCGTAAC | 0.0472 ± 0.011
ATGATACA | -0.00971 ± 0.019
ACATACGC | 0.032 ± 0.014
CTATGGGA | -0.0806 ± 0.014
AAGTGCCC | -0.146 ± 0.044
ACCTTTCA | -0.012 ± 0.093
GACGATCC | -0.0101 ± 0.077
ACGCGGCG | 0.105 ± 0.097
GTCCTAGA | -0.18 ± 0.037
AAACCATG | -0.0691 ± 0.0094
TGACGTCA | 0.0843 ± 0.0046
AGAACAGC | -0.108 ± 0.0036
ATCATAGC | -0.0418 ± 0.013
GAACTACC | -0.148 ± 0.036
GAACACGC | 0.151 ± 0.011
CTGCTGAC | 0.112 ± 0.041
CTAATCTA | -0.0284 ± 0.085
GTCAGATA | -0.127 ± 0.057
ACGCTCAC | 0.168 ± 0.039
GATACAGC | -0.226 ± 0.04
CTGATTGC | 0.0476 ± 0.069
TCTTAAGA | -0.164 ± 0.0027
AAATCGGG | -0.0718 ± 0.046

Sequence | PBM E-score of 8-mer
ATATCTAA | -0.178 ± 0.048
CTCGGAGA | -0.282 ± 0.025
CTCCAATC | -0.225 ± 0.078
GCCCAACC | -0.105 ± 0.066
CAGACACG | 0.117 ± 0.068
ATATTGTC | 0.17 ± 0.039
AAGAGCCT | -0.323 ± 0.019
ATGCTAAG | -0.00439 ± 0.073
AACGTGTG | 0.4114 ± 0.0041
ACTGCACT | -0.114 ± 0.025
CGCAAAAC | 0.172 ± 0.0026
CTTGAGAC | -0.0204 ± 0.048
CATGACCG | -0.218 ± 0.029
CACGAATG | 0.0901 ± 0.05
ACGCCTTC | 0.3516 ± 0.0025
AGACCTCT | -0.281 ± 0.035
ATAGGTAA | 0.0345 ± 0.088
AGTTAATA | -0.0555 ± 0.028
AGACAGCT | 0.0635 ± 0.052
CTCACCGC | 0.0406 ± 0.0049
GCACCCGC | 0.305 ± 0.035
AGGGTGAT | 0.123 ± 0.024
CGAATCGC | 0.262 ± 0.029
ATCCTGCG | -0.115 ± 0.054
TCCTTCCA | -0.182 ± 0.039

Sequence | PBM E-score of 8-mer
CATTATTC | -0.225 ± 0.088
GGGAAGAA | -0.0153 ± 0.0055
ACACAAGG | 0.164 ± 0.023
ATAGGTCG | -0.084 ± 0.038
ATGCCCAT | -0.184 ± 0.01
ACTGCACA | 0.0847 ± 0.033
CATCGTCG | 0.208 ± 0.048
CGAAGACC | -0.109 ± 0.036
CTCTTAAG | -0.29 ± 0.0099
AGTCGCCA | 0.153 ± 0.067
ATCCCCGG | -0.169 ± 0.022
CTTTGAGC | -0.0941 ± 0.03
TCTCGTAA | 0.003865 ± 3.5e-05
GTATTCAC | 0.28649 ± 0.00028
CCCAGTCG | -0.0208 ± 0.099
ATGCTACG | 0.0354 ± 0.032
AAACGTAC | -0.237 ± 0.034
AATTTCTG | -0.212 ± 0.013
GAGCATAA | -0.111 ± 0.0058
AAATTTAA | -0.175 ± 0.088
ATACGTAG | -0.323 ± 0.047
GTTCTGCA | -0.0557 ± 0.12

Source: the supplement of paper PMC4166925
